The chains are these.
B1: TPR 5TU (parent)
chain: GGAUCUUCUCGAUCUAACAAAAAAGACAAAUCUGCCACAAAGCUUGAGAGCAUCUUCGGAUGCAGAGGCGGCAGCCUUCGGUGGCGCGAUAGCGCCAACGUUCUCAACUAUGACACGCAAAACGCGUGCUCCGUUGAAUGGAGUUUAUCAUG

The values that follow come from the RNAGym collection of RNA variant scans (doi:10.1073/pnas.2313332121).

Variants at the background level are over-represented here.

The variants in this series derive from B1. The series is described as follows: polymerase ribozyme fitness, log enrichment relative to wild type (log ratio); higher = more active; in vitro selection for triplet polymerase activity. The essentials:
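Libraries of mutants in each subunit of a heterodimeric triplet polymerase ribozyme were generated by PCR and transcribed. In triplicate, each went through one in vitro selection round: annealing with biotinylated primer, partner subunit and triplets; frozen incubation at −7 °C; gel excision of extended constructs; streptavidin-bead capture; RT-PCR. Fitness, taken from Illumina sequencing of input and output libraries, is the logarithm of a genotype's enrichment over wild-type enrichment, averaged across replicates with inverse-variance weights. The logarithm is base 2, and genotypes needed ≥10 input reads and ≥1 read per output to be kept.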
For the variant U13G A20U G46C A52G U78A C85G U148A, the “polymerase ribozyme fitness (log ratio)” value is at most -4.2.

Turning to U13C C54G C95G C108G C129A, the “polymerase ribozyme fitness (log ratio)” value was at most -4.2.

As for U13A G50C A52U C57G G84A C85G G94U A97G, the “polymerase ribozyme fitness (log ratio)” value was at most -4.2. The value for C14G A24C A26U C36A A73G A107U A119U U144A was at most -4.2; that for U13G C27G C51A G84C A142G A147C was at most -4.2. With C14A U45A C54U C75U G94A, the “polymerase ribozyme fitness (log ratio)” value is at most -4.2. With C14A A22U U31C U53A G80U G92U A142U, the “polymerase ribozyme fitness (log ratio)” value is at most -4.2.

U13C C18G A21U A40C U53G A60U U61A G94U G100A G126A: the “polymerase ribozyme fitness (log ratio)” value is at most -4.2. The value for U13G C14A A19G C51U G71C G83C G92C C125G was at most -4.2; that for U13G C36U A91U C99A was at most -4.2.

In the case of C14G A22G A40C U78C C96U G141U, the “polymerase ribozyme fitness (log ratio)” value was at most -4.2.

On to U13A U61A C96U C108A, for which the “polymerase ribozyme fitness (log ratio)” value was at most -4.2. C14A C75A C99U A147C: the “polymerase ribozyme fitness (log ratio)” value is at most -4.2. The value for U13A C32G A60G C75A C79A A120G was at most -4.2; that for U13G U15A G50U U53A G94U was at most -4.2; that for U13G A19U A28C A91G G112C A115G A120G G140C A147U U151C was at most -4.2. Regarding U13C U15G A29C C43U G92U A120C G126A G133U A142U, the “polymerase ribozyme fitness (log ratio)” value is at most -4.2. For C14A C43A C85U U104G A115C A120G G140A, the “polymerase ribozyme fitness (log ratio)” value is at most -4.2. As to U13G U44A A49C G88C, the “polymerase ribozyme fitness (log ratio)” value is at most -4.2. On to U13G A22G C38U A39U A40U C93U, for which the “polymerase ribozyme fitness (log ratio)” value is at most -4.2. For C14G A20U A22U A41C C43U C54A C79G U82G G92U A110U C125U C149U, the “polymerase ribozyme fitness (log ratio)” value is at most -4.2. On to C14G A19U A28U G62A C93A G136A, for which the “polymerase ribozyme fitness (log ratio)” value is at most -4.2.

As to C14A U15A C36U U55A G70C G80U U102G U111A G140C U148G, the “polymerase ribozyme fitness (log ratio)” value was at most -4.2.

As for U13G A24C C76U C87G C123U U139A, the “polymerase ribozyme fitness (log ratio)” value is at most -4.2. Regarding C14G A22C C32U C85U A142G U145G, the “polymerase ribozyme fitness (log ratio)” value was at most -4.2. On to U13G C14U A16G G59A U90G, for which the “polymerase ribozyme fitness (log ratio)” value is -4.01. Consider U13G U55G C57G C76U G83U A106U, for which the “polymerase ribozyme fitness (log ratio)” value is at most -4.2. The result for U13G U56A C87A C93A A107C U151A reads at most -4.2; that for U13A G58U A64U C93A G141U, at most -4.2; that for U13G G46A G62C C93A, at most -4.2. The result for C14A G58C A66U C99U reads at most -4.2; that for U13A A26U C27U C36A U56C, at most -4.2; that for U13G C36U C43U U53G C96U C105A U146A, at most -4.2. For the variant U13C A52C U55A G92U C93A A113U, the “polymerase ribozyme fitness (log ratio)” value was at most -4.2.

Regarding U13C A26U A52C U55A G88A A89C C99U U135G A142U, the “polymerase ribozyme fitness (log ratio)” value is at most -4.2. The result for U13G A16C A28G G59A C63A C85U reads at most -4.2; that for C14A A73G G80A G83U C93G C125U U130G A150C, at most -4.2. For C14G A20U U33C U56A G92A U109G A138G, the “polymerase ribozyme fitness (log ratio)” value was at most -4.2.

As to C14A A60G U77G C87U C132G, the “polymerase ribozyme fitness (log ratio)” value is at most -4.2. The result for C14G A23C U77C A106C reads at most -4.2; that for U13C A49G G59U G92C C108U A138U A142C G143U, at most -4.2. Turning to C14G A23U C54G G67U A142U U151A, the “polymerase ribozyme fitness (log ratio)” value was at most -4.2. C14A C32G C35G C57G G92A C95A A121U: the “polymerase ribozyme fitness (log ratio)” value is at most -4.2.

With C14A C35G A37C G42U G94C G133U A138G A150U, the “polymerase ribozyme fitness (log ratio)” value was at most -4.2.

Take C14G A23G C38A A52G G94U: the “polymerase ribozyme fitness (log ratio)” value was at most -4.2.

For the variant C14A U44A A60G A122G C131G C132G A137C, the “polymerase ribozyme fitness (log ratio)” value was at most -4.2. With U13G C79A C103U, the “polymerase ribozyme fitness (log ratio)” value is at most -4.2. As for U13A C43G C63U C75G A89C C108A A110G, the “polymerase ribozyme fitness (log ratio)” value was at most -4.2.

On to U13G A28C G83A C114A G140C A142C, for which the “polymerase ribozyme fitness (log ratio)” value is at most -4.2.

Regarding U13G C38U G88A U101A G124U, the “polymerase ribozyme fitness (log ratio)” value was at most -4.2. As for U13G U78G G86U G140A G141A, the “polymerase ribozyme fitness (log ratio)” value is at most -4.2. On to U13A U15C A28G U33G C79A C118U U148G, for which the “polymerase ribozyme fitness (log ratio)” value was at most -4.2. The result for U13A A40G G86U U104G C108A G141A reads at most -4.2.

As for C14A A20G G67A C85A G126A U144A, the “polymerase ribozyme fitness (log ratio)” value was at most -4.2. The value for C14G A22C C54A G59A C76G C116G U134G was at most -4.2; that for U13A C27G U82G U151C was at most -4.2. As for U13G A30U G67A A73U U90C, the “polymerase ribozyme fitness (log ratio)” value is at most -4.2. For C14A A39G G42A U82C G88C, the “polymerase ribozyme fitness (log ratio)” value was at most -4.2. Consider U13G C36G A41U G50A G83A G86U C95U A113U, for which the “polymerase ribozyme fitness (log ratio)” value is at most -4.2. The result for U13C A20C G83U C85A C93A reads at most -4.2; that for C14A A73G G86A A98U, -3.58; that for C14G A22U C38U G136C A147C, at most -4.2. Regarding C14A A29U G94U U134G, the “polymerase ribozyme fitness (log ratio)” value is at most -4.2. In the case of U13G A47C G50U C69G G71C C95G A115G C132A, the “polymerase ribozyme fitness (log ratio)” value is at most -4.2. The result for U13G A24U U33G U53A U55A G84U reads at most -4.2; that for C14G A23C C87A A110G A115U C123U, at most -4.2. Take U13C A49C: the “polymerase ribozyme fitness (log ratio)” value was at most -4.2. Turning to C14A A47U C54U C76G G83A G86A C87A G88C A89C G92C A138G, the “polymerase ribozyme fitness (log ratio)” value is at most -4.2. For the variant U13C A16U A30C U45A A52C C85U A107C U135G, the “polymerase ribozyme fitness (log ratio)” value was at most -4.2. On to C14G A24U A30U U44A C54A C87U G112U, for which the “polymerase ribozyme fitness (log ratio)” value was -4.11. On to U13A G42A A52C U55G U56A G84C C87A C105G C123G A150G, for which the “polymerase ribozyme fitness (log ratio)” value was at most -4.2. For C14A C72G A73U C87G, the “polymerase ribozyme fitness (log ratio)” value is at most -4.2. The value for U13C C27A C69U U78C C87U U101C U135C G141U was at most -4.2; that for U13G A23U U53C U144C was at most -4.2; that for U13C C32U G58C G67A C95A C116G C149U was at most -4.2.

Consider C14A C75A, for which the “polymerase ribozyme fitness (log ratio)” value was at most -4.2. With U13G U31C A40G G58U U78C C85G C114U G141U, the “polymerase ribozyme fitness (log ratio)” value was at most -4.2. Regarding U13G U31A G58A G67A G68C C75U C105G, the “polymerase ribozyme fitness (log ratio)” value was at most -4.2. As for C14A G83C C93U C108A G152A, the “polymerase ribozyme fitness (log ratio)” value was at most -4.2. For C14A A40U C76U U78G G84A C103G G128A G141C, the “polymerase ribozyme fitness (log ratio)” value is at most -4.2. The result for U13C C18G C69G C72U G88C C105A reads at most -4.2; that for U13G A23G A66C C75G A98U C114U, at most -4.2; that for U13G A20U C57A G74U U148G, at most -4.2. Turning to U13G A23C U53A U82G G83A U104A A137C, the “polymerase ribozyme fitness (log ratio)” value was at most -4.2.
